Read counts are not given, so values of variants with three or more changes are uncertain.
B1: CPEB3 Ribozyme (parent)
chain: UAACAGGGGGCCACAGCAGAAGCGUUCACGUCGCAGCCCCUGUCAGAUUCUGGUGAAUCUGCGAAUUCUGCUGUAUAUCUC

Variants of: B1
Test: self-cleavage, relative activity (ratio to wild type); higher = more cleavage; in vitro, sequencing
Summary of the method: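 Relative activity was defined as the cleaved/total read fraction for a variant divided by the same fraction for the unmutated ribozyme. CPEB3 self-cleaving ribozyme libraries were made by rounds of error-prone PCR, barcoded, and transcribed in vitro with T7 RNA polymerase for 5 hours at 37°C, and cleavage ran through transcription plus a 15 min DNase I step before EDTA. Illumina sequencing of template-switched reverse transcripts gave the reads, and DNA sequencing mapped the barcodes. Averages come from three batches, using variants with at least 5 reads.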

Row | Variant | self-cleavage
1 | C27A A35U U48C U74C | 0.12
2 | A28G A64U U72C U74C A75G | 0.13
3 | A28C C29A U31A U48C A56G | 0.13
4 | C27U A47G U58A A65G | 0.14
5 | A28G A47G U60G | 0.12
6 | A28G C32U U41C U60C | 0.07
7 | A28C C29U U31A A64U | 0.18
8 | A28G A45G U54A | 0.48
9 | C27U U41A A47G A57C U76C | 0.06
10 | A28C G33C U51A A56U U60G | 0.06
11 | A28G C32G A64G | 0.38
12 | A28C U43A U67G | 0.19
13 | A28G A35G U43G A56U | 0.13
14 | A28G C39G U49A U51C A57G | 0.14
15 | C27A A28U U67G G73A U78C | 0.05
16 | A28C U51C U74A | 0.69
17 | A28C U51C A65G | 0.17
18 | A28C U41C A64G | 0.24
19 | C27U A56U U58C | 0.51
20 | A28G A47U U49C C62U A64G | 0.2
21 | A28G A47G G55U U74C | 0.51
22 | A28G C32U U49C U51A U78C | 0.14
23 | C27U A28G U41C G52A U54C U69A U72A | 0.06
24 | C27U G33A A47G A56U | 0.17

Row | Variant | self-cleavage
25 | A28G C29G A57G | 0.31
26 | A28G C37A C39A A56G G61A | 0.06
27 | A28C U67A U69C | 0.06
28 | A28G A45G U48C U51A A65U A77U U80C | 0.05
29 | C27G G63A U76G | 0.18
30 | A28G A45G U51C U67C | 0.17
31 | C27A G63A U78C | 0.2
32 | A28C G33A A56U U66C U72A | 0.1
33 | A28G A45C U69C | 0.07
34 | C27U G33A A35U A56U U60A U72C | 0.03
35 | C27G G52A U78A U80C | 0.14
36 | A28C G63U U72C | 0.59
37 | A28G A45G U67C | 0.16
38 | A28G C38U U41C A56G U58A U69C | 0.06
39 | A28G C62U U69C | 0.06
40 | A28G A45U A47G A65G | 0.14
41 | C27A C29A U54C | 0.24
42 | C27U A35U C62G U66C U80C | 0.21
43 | C27U G36A U74A | 0.08
44 | A28G G33A A45U U58A A64G | 0.12
45 | C27U U54G U78A | 0.21
46 | A28C C40G A45C A47G U48G | 0.06
47 | C27U U54A A65G | 0.14
48 | A28G A35G C37A U43C U69C U74C | 0

Row | Variant | self-cleavage
49 | A28C U51C U80C | 0.67
50 | A28G C34G U54C A77U U80C | 0.07
51 | A28C U31C G33A | 0.19
52 | A28G A45U U58C | 0.08
53 | A28G A45G A64G U66C U72A | 0.05
54 | A28G A45G A47C U49C G70A A77U | 0.16
55 | A28C A47G U72C | 0.51
56 | A28G C29U A47G U54C | 0.11
57 | C27U U43C U60C | 0.14
58 | A28G A57G U66C U67A | 0.13
59 | A28G A35U A65G | 0.14
60 | A28G A47G A64G | 0.41
61 | A28C U31A U41C G42C | 0.4
62 | A28G C37U A64G | 0.18
63 | A28G C62U U76C | 0.12
64 | C27A U31A U67C U74C | 0.14
65 | A28G A56U A65G | 0.12
66 | A28C A56G A64G U80A | 0.17
67 | A28C A35U U51C U67A | 0.14
68 | A28G C29A A75G | 0.25
69 | A28G A35G U49C G61A U76A U78C | 0.07
70 | C27A A47G A57G C79U U80C | 0.28
71 | A28G A45G A47G | 0.29
72 | C27U U31C G42A | 0.76

Row | Variant | self-cleavage
73 | A28C U43C A45G A65G | 0.08
74 | A28G C40U C59U U74A U80C | 0.59
75 | C27U A56G C62G U80C | 0.24
76 | A28G A35G G53A | 1.19
77 | A28G A45G G55A A56G | 0.37
78 | A28G C39U U60A | 0.08
79 | A28G C39U U54C A64U | 0.11
80 | A28G A47G U51C A57G U67C U72C A77U | 0.06
81 | A28G A56U A57G | 0.14
82 | C27A U54C A57U U74A A75G | 0.08
83 | A28G C50U A56G U72C | 0.52
84 | A28G A35G C37G U48C A65G | 0.13
85 | A28G G33A G61A U74C | 0.17
86 | A28G C29U G53A A56G | 0.3
87 | A28G A35C U51C | 0.31
88 | A28G A47G U69C U72C | 0.09
89 | A28C U54C U69A U72A | 0.06
90 | C27U A28G A45U U72C A77G | 0.13
91 | C27U U41C G63A U66C U67C | 0.15
92 | A28G C32A C79U | 0.1
93 | A28G G30A U72C U80C | 0.24
94 | C27A C37U U41A | 0
95 | A28G A47U U49C | 0.29
96 | A28G C38U U48C U67C U74C | 0.1

Row | Variant | self-cleavage
97 | A28G C32U U58C | 0.06
98 | A28C C29U A45G U69C | 0.06
99 | A28G G33A U41A U51C U69A | 0.06
100 | C27G U51A U67C | 0.15
101 | A28G A56G A57G U60C | 0.15
102 | A28G A57G U69G | 0.15
103 | C27G A45G A57G | 0.16
104 | A28G G33A C39U | 0.14
105 | C27U A28U U41A U43C | 0.18
106 | A28C U31A U80A | 0.23
107 | C27A A35G G36A U58C U67A A75G | 0.09
108 | A28G C34A C44A A56U U74C | 0.08
109 | A28C U60A A64G U78C | 0.42
110 | A28G C29U U51A A57G | 0.05
111 | A28G A45G G55U | 0.18
112 | A28G A35U C40U C59A C81U | 0.17
113 | A28C A35U U69C C71G | 0.11
114 | A28G C38A U78C | 0.15
115 | A28G C34G A56G A57G | 0.07
116 | A28G A35G A45G A65C C71A | 0.14
117 | A28G A56G C79U | 0.84
118 | A28G A47G U48C U51A A56U U58C | 0.18
119 | A28G A35G U72A | 0.74
120 | A28G A35U U49A A56G A57G U58C | 0.13

Row | Variant | self-cleavage
121 | A28G A45U C50U U66C U72C | 0.01
122 | A28G A35G A45G U51C U67A U72A | 0.52
123 | C27A U43C U49C A56U U69C U72C | 0.07
124 | A28G C40A A56G | 0.05
125 | C27A U66C U72C | 0.15
126 | A28G A45G G46C U48C G55A U69C A77G | 0.05
127 | C27U A35G G63A | 0.23
128 | C27A C32A A35U U72C | 0.06
129 | A28G C38A A45U U48C U69A | 0.05
130 | A28G C50A A57G U74A | 0.58
131 | A28C U48C A57U U67C | 0
132 | A28G G33A U43C A77G U78A | 0.06
133 | C27U U31C U69C U72A U80A | 0.33
134 | C27U U41A A47G U69C A77C | 0.07
135 | A28G A64U A75G | 0.12
136 | C27G U54C U60A U80C | 0.11
137 | A28G G30A U67C U72C | 0.05
138 | C27U U58A U60A A65C | 0.08
139 | A28G A35G A57C U58C U66C U78C | 0.09
140 | A28G C44G U60C | 0.12
141 | A28C U31A G33A A64G | 0.08
142 | A28G A47G U49C A65G U69A | 0.07
143 | A28G A45G G46A | 0.11
144 | A28G C40U U43C A57G U72C U76A | 0.04

Row | Variant | self-cleavage
145 | A28C C34A C40U A47G U54C | 0.04
146 | A28G C29U A64U | 0.31
147 | A28G A64G U72A | 0.38
148 | A28C A35G A65G U67G | 0.25
149 | A28G A45U A77U | 0.44
150 | A28G A45C A64U | 0.15
151 | A28G C32U U69C | 0.32
152 | A28G C39A U66C G70A | 0.13
153 | A28G A45U U74C | 0.38
154 | A28G C50U U51A U66A U69C | 0.15
155 | A28G G30A U41C U43A U80C | 0.13
156 | C27G U31A U49C | 0.15
157 | C27A C38U U41C U60C A64G | 0.08
158 | A28G A47G U69G | 0.19
159 | A28C A35U U41A U54C U60A | 0.13
160 | A28G C29A U51C | 0.18
161 | A28G A35U A45U A47G | 0.15
162 | C27U U41C U60A A65G U67A U69C | 0.06
163 | A28C U67C U74A | 0.35
164 | A28G A35U U58G | 0.11
165 | A28G C50U U69C U72A U74A U78C | 0.12
166 | A28C U41C A64G A77G | 0.24
167 | A28G A56U U76C | 0.32
